Sequences with one replicate were seen in a single cluster, so their values are uncertain.
system: ATP; assay: switch fluorescence ratio, 500 uM ATP over buffer (Cy3 cluster intensity, sum of 5 cycles each) (fold (ratio)); higher = stronger signal-on switching upon ATP binding; sequences stand for … in TCGTCGGCAGCGTCAGATGTGTATAAGAGACAGTTTTTTTTTTTTTTTTTTTTTTTTT…TC; conditions: aptamer strand: ATP DNA aptamer (quencher-CACCTGGGGGAGTATTGCGGAGGAAGG + anchor), 100 nM annealed; ATP concentration: 500 uM; one replicate
Method in brief: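 Values give the fluorescence ratio for each switch-domain sequence, averaged from per-cluster ratios of summed target-cycle to summed buffer-cycle Cy3 intensity. The Cy3-labelled switching-strand clusters sat on a modified Illumina MiSeq flow-cell, were annealed to 100 nM quencher-labelled ATP aptamer, and were imaged in selection buffer, then after 15 min with 500 uM ATP at 22 °C. Five cycles ran with NaOH stripping and re-annealing between them, and clusters outside 100-1000 RFU were excluded.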
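Note: ATP exposure 15 min at 22 °C before imaging.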

Sequence	switch fluorescence ratio
GTCGCTTCGA	0.979
CCATCGGCTT	1.02
TCAGGTGAG	1.28
GGGGCGCCCG	0.97
GTAGGCCGCG	0.971
TTAACGCATT	1.16
GACTCATTAT	0.999
AGGTCATAAA	1.01
AGGGCGGGCG	1.05
TACACTAGAT	0.999
ACCCTTGCAA	2.25
GGAAATTGAT	1.01
AGCTGCGCAG	1.02
GCCTGTCGCG	1.02
AAGTAACTTA	1.06
TTGCTTGGT	1.03
CTCACTATTG	0.988
GCGATGAAAT	1.05
AGTTGCTTAG	0.969
GATTTACTGT	1.06
CATGCAGTCC	1.01
AGATGGTTT	1.04
TTCGGGCAAG	1.16
CCATTCGTCA	1.08
CCATAGTAGT	1.13

Sequence	switch fluorescence ratio
GAACCCTGAA	1.09
CGCGGTACCT	1.09
ACGTTAGGAA	0.989
GCTCTTGTTT	1.4
GAGCCAGACT	1.07
TATAAAGGAA	0.997
AAACGTATAG	1.03
GTATCATCCG	0.975
TGACAAAGAC	1
CATTATCTCA	0.961
CGACTCTAAT	1.19
CAACTATCAA	0.963
GAATATAAAA	0.981
AAGAATTACG	1.08
TGGACGAAGA	0.98
AATTGTGGAC	0.986
CTCAGTAACA	1.15
GCTGTATTGG	0.994
AGACGAACTT	1.26
GTTGCTTTTC	1.02
GCTTGGGTAC	1.02
CATCCGTTCC	2.44
TAAATCGAGA	1.02
TAAGAACAAT	1.04
GGTATCCTAG	0.926

Sequence	switch fluorescence ratio
TTAGATTGTT	1.01
ACGTCCGTGC	1.18
TGGCTCTACG	1.05
TATGTGGCTG	0.978
CACACAACGG	1.21
TGCCGGATCC	0.937
TCCAACGGCT	0.982
GTTGTAAACT	1.27
TGGTGGAGAA	0.928
CTAGATCAGT	0.978
TGGCGGCTCG	0.991
CGTAATGTGC	1.22
AGCCTCTAGC	0.972
ATAATGGTCA	1.03
ACGCTGCGGT	1.04
GCGACCGGAC	1.68
ATCGTCATTT	1
TATCAAGGAA	1.02
TGAGGTGTGG	0.919
TCAGAATCA	1.01
TAAGACGTG	0.867
TGTGAAAAGC	0.99
TCTGTGATTT	1.12
TTTCGAACTA	0.986
CGCTTCTTTG	1.02

Sequence	switch fluorescence ratio
ACTACCTAAG	1.11
TATCTGGAAT	1.04
GGAACCATTG	0.999
CTAGTTATTA	1.03
TACAAGTTCG	0.998
AAAATTGAAG	0.961
CTAGCACGGG	1.02
GATGGCGACT	0.989
AGCTCCACAG	1.14
GTGTTAGGAA	0.979
CTGACTGATT	1.02
TTCGGCCGGC	1.02
GCACTAGGAG	1.07
GATTGGGCAC	1.01
CGGTACTTCG	0.987
CCCTGCTGT	1.27
AGGAAAATTA	0.976
TTACCTTCAT	1.62
TACAAGAGTT	1.05
TTTCGATGAC	2.3
ACTGGCTTGC	1.04
GGGTTTAAAG	0.924
AATTCCGCTA	2.98
GCTTTGTAA	0.955
TATGCATTTA	1.06

Sequence	switch fluorescence ratio
ACATTGCCGT	1.01
CAATTCTCAG	1.09
AAGCACGTGA	1.04
CAGTCATAGT	0.921
CTTATTTA	0.989
AATCGAGATA	0.994
CGGCTGCTAG	0.987
AAATCGCTTT	1.03
ACTAACTAAA	1.1
CAGATTTTTC	0.973
TATACGGCTC	1.02
ACAAGCCATG	0.993
TCGTACTTGC	0.998
AGCCGGGGCA	0.977
CCCAATGGGA	1.01
GACAGCTCAA	1.04
TCAATATGCT	0.995
TATTATAGGG	0.946
ATTCCAGGAG	1.12
TCGTCTGG	0.985
TCACGGTGGT	1.02
TCTGGCCGGT	0.972
GGGCTGCGAA	0.988
GGCTGGGGAA	1.01
ACTTACAATC	1.28

Sequence	switch fluorescence ratio
TTGGCTAAAT	1.01
CAAGACGGCT	1.02
GAATAGAGTG	0.944
ACCGATCGTC	1.09
TCAAGGGTAC	1.02
GCTTGCTGAA	0.982
CAATACTTCG	1.18
GCCAGATCT	0.94
ACTAGCCCGT	0.987
CACATACATC	1.34
CAGAAAGTCG	0.991
TGCATAATGC	1.02
GGTCACTTAC	1.17
TGAAACCAAG	1.11
TACGATGTTT	1.1
ACGTAGTATT	0.978
GTATTATATT	1.01
AAATGGCTGC	0.887
TAGGTAGTCG	0.956
GCATATGCCG	0.991
ACCGGTCATT	1.01
GGGCAAGGAC	1.31
AAGAATCATA	1.04
CGATCTAGCA	0.982
CGAACCAAAC	2.13

Sequence	switch fluorescence ratio
GTGGTATTTA	1.01
TATGGGGATA	1.02
ATCAAAGTT	1.03
GGTTGTCGTT	1.04
CGGGACTTAG	1.03
TACAGATCGG	1.02
AAAAAGGGC	1.03
CTGATCCAGG	1.4
AGGTTGTCTC	1.02
TTTGTGAAAT	1.01
ATTAATCTCA	1.01
TTATACTGCA	1.03
TATTTAACGT	1.05
AGCCCGCTAA	0.997
TGCTTCGTTG	1.16
GGGCATAAAA	1.01
CTAGTAATCT	1.07
TACACCATAT	1.12
CCGGCAAAAT	1.04
GTTTTCACTG	1.03
TGGGAAAAGT	0.962
GGTAGAGTGC	1.08
TTACTAGG	1.04
ATTCAATCAT	1
CACGCACTTT	1.32

Sequence	switch fluorescence ratio
ATATGTACCC	1.07
CCTATTGGAG	0.979
ATACTCCCTG	2.09
TTGTGAGAGC	1.09
AACACCTATA	1.01
CCAGGTTATT	1.08
GATGCCTATG	1.03
AAGAAGGCCA	0.962
TTAGGGCGAG	0.974
TACTGAGGTC	1.02
GGTTCGTTGC	1.02
TTTATTCCGA	1.01
CGATAATACC	1.27
ACTAAGTGGT	1.04
GCGGGTAAAT	0.963
GAAGATTAAT	1.02
TTGCCGTCTT	0.928
TTGGGGCATC	0.985
GATCACTCAC	1.29
ACATTCGAGC	0.987
TCAAAGTACA	1.16
TTTGTATGTG	0.984
GTTTGTTGG	1
TGCAGCGAGC	1.26
ATCAGAACGG	1.02

Source: the supplement of paper PMC10126150
